Data on two substances can be found in publication PMC3160840.

Amino acid sequences for entries named in this document (tags omitted). A change or cut given only in a name is not applied to a line headed by its entry. Residues count along the entry.
UniProt Q9UNP9: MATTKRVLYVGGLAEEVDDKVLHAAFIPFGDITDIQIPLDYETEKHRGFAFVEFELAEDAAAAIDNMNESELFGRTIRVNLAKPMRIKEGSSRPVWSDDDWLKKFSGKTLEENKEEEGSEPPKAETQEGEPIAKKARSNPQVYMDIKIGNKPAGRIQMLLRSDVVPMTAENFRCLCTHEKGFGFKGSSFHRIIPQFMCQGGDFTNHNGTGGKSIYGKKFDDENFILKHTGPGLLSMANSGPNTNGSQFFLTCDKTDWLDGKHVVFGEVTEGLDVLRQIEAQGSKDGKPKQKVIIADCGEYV
GST-CypE 137–186: residues 137-186 of Q9UNP9
UniProt P15682: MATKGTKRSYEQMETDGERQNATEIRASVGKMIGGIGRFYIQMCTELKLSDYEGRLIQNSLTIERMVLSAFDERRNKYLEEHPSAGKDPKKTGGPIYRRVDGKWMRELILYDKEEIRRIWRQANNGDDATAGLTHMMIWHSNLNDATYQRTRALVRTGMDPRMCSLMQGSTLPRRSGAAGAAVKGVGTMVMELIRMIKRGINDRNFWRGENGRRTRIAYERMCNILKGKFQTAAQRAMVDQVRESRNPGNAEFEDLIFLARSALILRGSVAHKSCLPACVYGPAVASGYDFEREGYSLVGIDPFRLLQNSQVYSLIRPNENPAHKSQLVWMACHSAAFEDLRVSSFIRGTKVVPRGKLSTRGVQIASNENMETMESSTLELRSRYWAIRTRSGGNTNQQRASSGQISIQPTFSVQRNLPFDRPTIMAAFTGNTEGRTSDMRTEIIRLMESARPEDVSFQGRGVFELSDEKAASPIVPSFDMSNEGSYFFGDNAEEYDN

Experiment [1] addresses GST-CypE 137–186 (human) (UniProt Q9UNP9). The experiment in a line: pull-down.
For experiment [2], the target named is GST-CypE (Cyclophilin E fused to GST) (human) (UniProt Q9UNP9). Description: pull-down; both purified.
For experiment [3], the target named is Myc-tagged NP (influenza A virus A/WSN/33 (H1N1)) (UniProt P15682). Description: co-IP.

No constants are given. Whether binding was seen depends on the method and setting. For part of these data: In cells and extracts the contact can be indirect. Some results given as binding are weak or reduced against the parent protein; the word gives no strength.

With “His-NP fusion protein (nucleoprotein of influenza A virus A/WSN/33) (from UniProt P15682 1-498)”, the binding result in experiment [1] and in experiment [2] was “binds” in each case.

Turning to “Myc-tagged CypE (from UniProt Q9UNP9 1-301)”, in experiment [3], the binding entry was “binds”.
